Assay results taken from US20230416360A1 (SIMCERE ZAIMING PHARMACEUTICAL, published 2023).

T1: murine CD22-ECD-His (mouse, UniProt P35329 22-708)
T1 construct: extracellular domain; Bought; also called mouse CD22; murine CD22 protein
T1 sequence (looked up): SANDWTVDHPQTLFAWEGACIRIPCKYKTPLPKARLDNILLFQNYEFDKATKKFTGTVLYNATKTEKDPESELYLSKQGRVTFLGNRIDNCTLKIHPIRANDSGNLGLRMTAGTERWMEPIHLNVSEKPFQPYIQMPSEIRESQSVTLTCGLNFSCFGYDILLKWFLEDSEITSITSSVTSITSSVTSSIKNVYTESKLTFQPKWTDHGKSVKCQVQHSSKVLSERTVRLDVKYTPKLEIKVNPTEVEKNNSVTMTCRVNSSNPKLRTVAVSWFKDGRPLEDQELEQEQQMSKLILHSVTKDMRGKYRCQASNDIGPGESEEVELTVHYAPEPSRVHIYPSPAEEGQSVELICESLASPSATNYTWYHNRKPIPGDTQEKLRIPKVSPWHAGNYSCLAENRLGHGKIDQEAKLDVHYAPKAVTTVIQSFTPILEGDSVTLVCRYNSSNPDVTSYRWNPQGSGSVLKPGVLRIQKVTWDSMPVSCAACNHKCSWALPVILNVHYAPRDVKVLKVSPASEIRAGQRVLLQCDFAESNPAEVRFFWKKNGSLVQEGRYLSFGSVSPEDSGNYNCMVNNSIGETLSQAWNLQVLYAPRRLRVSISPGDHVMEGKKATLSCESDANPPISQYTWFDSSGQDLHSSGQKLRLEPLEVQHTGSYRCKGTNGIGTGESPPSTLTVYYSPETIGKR

T2: human CD22-ECD-His (human, UniProt P20273 20-687)
T2 construct: Made in HEK293E, purified on nickel column; also called hCD22-ECD-His; recombinant human CD22-ECD His; not shown: His tag
T2 sequence: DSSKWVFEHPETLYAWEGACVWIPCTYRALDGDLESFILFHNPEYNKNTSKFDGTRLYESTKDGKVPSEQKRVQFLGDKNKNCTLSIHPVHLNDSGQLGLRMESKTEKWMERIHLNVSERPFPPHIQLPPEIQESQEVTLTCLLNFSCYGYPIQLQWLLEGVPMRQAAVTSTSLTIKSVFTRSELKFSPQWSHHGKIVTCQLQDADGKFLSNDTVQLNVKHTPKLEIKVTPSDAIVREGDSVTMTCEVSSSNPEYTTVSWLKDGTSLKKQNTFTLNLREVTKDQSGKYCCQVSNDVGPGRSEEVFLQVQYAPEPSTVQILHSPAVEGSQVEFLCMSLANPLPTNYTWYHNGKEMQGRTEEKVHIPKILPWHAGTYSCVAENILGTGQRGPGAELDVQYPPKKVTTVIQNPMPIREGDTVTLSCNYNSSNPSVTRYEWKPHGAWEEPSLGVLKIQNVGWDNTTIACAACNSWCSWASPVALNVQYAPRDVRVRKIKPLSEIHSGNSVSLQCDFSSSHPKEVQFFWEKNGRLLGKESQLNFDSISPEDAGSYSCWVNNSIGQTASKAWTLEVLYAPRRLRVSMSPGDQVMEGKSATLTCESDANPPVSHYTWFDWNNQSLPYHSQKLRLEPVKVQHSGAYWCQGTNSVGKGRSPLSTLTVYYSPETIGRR


How the values were obtained:
[1] = target: T1, murine CD22-ECD-His; experiment: ELISA, coated mouse CD22, antibody 0.01 nM
Experimental: (§1) The plate was sealed with plastic film and incubated overnight at 4° C., the plate was washed 2 times with PBS the next day, and then a blocking solution [PBS+2% (w/w) BSA] was added for blocking at room temperature for 2 hours. […] After incubation at 37° C. for 2 hours, the plate was washed 3 times with PBS. HRP (horseradish peroxidase)-labeled secondary antibody (purchased from Sigma, catalog number: A0170) was added, and incubated at 37° C. for 2 hours, and the plate was washed 5 times with PBS. TMB substrate was added at 50 μl/well, and incubated at room temperature for 30 minutes, then a stop solution (1.0 N HCl) was added at 50 μl/well.

[2] = target: T2, human CD22-ECD-His; experiment: ELISA, coated hCD22-ECD-His, antibody 0.01 nM
Experimental: as §1

[3] = target: T2, human CD22-ECD-His; experiment: ELISA, coated hCD22-ECD-His, antibody 0.0001 nM
Experimental: as §1

[4] = target: T3, cynomolgus monkey CD22 on peripheral blood B cells (cynomolgus monkey (Macaca fascicularis)); experiment: FACS, cynomolgus PBMC, CD20+ B cells, antibody 10 nM
T3 construct: whole, on cells; also called cynomolgus monkey B cells
Experimental: (§2) After the cell suspension was centrifuged, the cells were resuspended in PBS containing 1% BSA, and then the cells were counted. […] After washing the cells three times, APC-labeled secondary antibody anti-human IgG Fc (catalog number: 409306, purchased from Biolegend) was added. After incubation at room temperature in the dark for 30 minutes, the cells were washed 5 times, gently resuspended with PBS containing 1% BSA, and detected and analyzed by FACS (FACS Canto™, purchased from BD Company).

[5] = target: T3, cynomolgus monkey CD22 on peripheral …; experiment: FACS, cynomolgus PBMC, CD20+ B cells, antibody 100 nM
Experimental: as §2

[6] = target: T2, human CD22-ECD-His; experiment: ELISA, antibody coated 2 ug/mL, hCD22-ECD-His titrated
[7] = target: T2, human CD22-ECD-His; experiment: SPR (Biacore), antibody captured on Protein A, hCD22-ECD-His analyte
Experimental: Sample buffer and running buffer were HBS-EP+(10 mM HEPES, 150 mM NaCl, 3 mM EDTA, 0.05% surfactant P20) (GE Healthcare; BR-1006-69). The flow-through cell was set to 25° C. The sample block was set to 16° C. Both were pretreated with the running buffer. In each cycle, the antibody to be tested was first captured with a Protein A chip, then a single concentration of CD22 antigen protein was injected. The binding and dissociation process of the antibody and the antigen protein was recorded, and finally Glycine pH 1.5 (GE Healthcare; BR-1003-54) was used to complete chip regeneration. […] The concentration started from 200 nM (see the detailed results for the actual concentration in the test) and was diluted at 1:1, making a total of 5 concentrations. The dissociation phase was monitored for up to 600 s and was triggered by switching from sample solution to running buffer. The surface was regenerated by washing with a 10 mM of glycine solution (pH 1.5) for 30 s at a flow rate of 30 μL/min. Bulk refractive index difference was corrected by subtracting the response obtained from the goat anti-human Fc surface. Blank injection was also subtracted (=double reference). For calculation of apparent KD and other kinetic parameters, Langmuir 1:1 model was used.

Row | Binder | OD450 [1] | OD450 [2] | OD450 [3] | Proportion of VHH-Fc antibody positive cells to B cells (%) [4] [%] | Proportion of VHH-Fc antibody positive cells to B cells (%) [5] [%] | EC80 [6] [nM] | Kd [7] [nM] | koff [7] [s⁻¹] | kon [7] [M⁻¹ s⁻¹]
1 | S002-NB150-152n VHH-Fc (Fc fusion, VHH cloned into vector BI3.4-huIgG1 (hinge and human IgG1 Fc), made in HEK293E) EVQVVESGGGLVQTGGSLRLSCAASGRPFDWLTVGWFRQAPGKEREFVAAISQSGGRIFYSDSVKGRFTISRDNAKNTAFLQMNSLKPEDTAVYSCAAQMRGYSRAAYPDEYDYWGQGTQVTVSS[human IgG1 Fc with changes cut from this listing] | 0.07 | 1.21 | 0.13 | 6 | 14 | 4 | 2.08 | 0.000442 | 212000
2 | S002-NB151-14 VHH-Fc (Fc fusion, VHH cloned into vector BI3.4-huIgG1 (hinge and human IgG1 Fc), made in HEK293E; also called 5002-NB151-14) QVQLVESGGGLVQAGGSLRLSCTTSGGTLSRITMGWFRQAPGKEREFVAAIKWGGSSTPYSDSVKGRFTISRDNAKNTVYLQMDRLVPEDTAVYYCAGGLRGPYSDSVTSSVQYNYWGQGTQVTVSS[human IgG1 Fc with changes cut from this listing] | 0.06 | 0.58 | 0.22 | 90 | 94 | 32.3 | 15.9 | 0.000254 | 16000
